From the supplement of paper PMC11417369
This is one part of the list.

test system: PF3D7_0420300 AP2 domain 1 (GST-tagged); test: gcPBM binding intensity (ln(normalized median fluorescence intensity)); higher = stronger DNA binding
Procedure, shortened: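 The highest Masliner-normalised natural-log median intensity across replicate spots of either probe orientation is reported as binding intensity. GST-tagged P. falciparum DNA-binding domains expressed in E. coli were applied for 1 h to an Agilent 4 × 180k array of primer-extended double-stranded 36-bp intergenic genomic probes plus negative controls, and bound protein was detected with Alexa488 anti-GST antibody and scanned at 488 nm.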

Going from “AATTAGATGGATAAATGTACATATGTGAATATATTT [XGTACX_site85]” to “AAAAAAAAAAAAAACACACAAACATCAAATTATTAT [CACACA_site1838]”, the “gcPBM binding intensity (ln)” value rises from 9.35 to 9.81.

First: GTGCCCTTTTTAATAACATGCAAATAACATATTTAT [TGCATGCA_site709]
Second: TTTATATTATACGCACTAATATATATATATATATAT [TGCATGCA_negctrl_site47]
The “gcPBM binding intensity (ln)” value of the first is higher: 9.38 for the first, 9.27 for the second.

First: ATATAACACAAGGGCACACATATACCTTTCCTTTTT [CACACA_site412]
Second: ATCTTATATCGTAGAGATTTTTTTTTTTTTTCATTT [XGTACX_negctrl_site140]
The “gcPBM binding intensity (ln)” value of the first is higher: 9.52 for the first, 9.19 for the second.

Going from “AATTTCTTCTTAGGGTGTACAATTTGACATAAGGAA [XGTACX_site1773]” to “GTAATATATATTAAGTAATAGTTTATCTTAGGAAAA [TGCATGCA_negctrl_site302]”, the “gcPBM binding intensity (ln)” value rises from 9.02 to 9.05.

Compared with “TACTTATATTGAAATGGTACAGATAAAAAAAAAAAA [XGTACX_site1407]”, “ACATTCTATCTAAGTACACACATTAATTTTTTTTTT [CACACA_site4106]” is higher in “gcPBM binding intensity (ln)” value: 9.18 for the first, 9.54 for the second.

Compared with “TTTTGTAATGTGAATATTTGTATATTATTTGTATAT [CACACA_negctrl_site1677]”, “AATTTACATATATATTGTACATTTATGTATATATAT [XGTACX_site4186]” is lower in “gcPBM binding intensity (ln)” value: 9.4 for the first, 9.29 for the second.

Going from “TAATATTTTTTGTGTACACATATATATATATATATA [CACACA_site5504]” to “CATTTGCACCCGCACACACACATAAAAAGAAAAATA [CACACA_site4350]”, the “gcPBM binding intensity (ln)” value rises from 9.32 to 9.85.

Going from “TAATTTTTTTTAATAACACACATATAAATATAAATA [CACACA_site6521]” to “AACATTGATAAATATAAACACACGAAAACAGACATA [CACACA_site490]”, the “gcPBM binding intensity (ln)” value rises from 9.15 to 9.86.

Compared with CATATTATTATTTTGGTGCATACTTATATATATTTT, “GTACCTATTTCATACACACACACACCCAAACAAACA [CACACA_site976]” is higher in “gcPBM binding intensity (ln)” value: 9.45 for the first, 10.3 for the second.

Compared with “GAAACAATTTGATATTGTACATAAATAAATAAAAAC [XGTACX_site8869]”, “CTTGTACCTAGAAATACACACAATTCTATAACTTAT [CACACA_site7355]” is lower in “gcPBM binding intensity (ln)” value: 9.53 for the first, 9.39 for the second.

Going from “AATGTAGAAATGGGTGCACACACATATATAATATAT [CACACA_site8799]” to “AATGTGTAGACACGCACACACAAAAAAATATATATA [CACACA_site5595]”, the “gcPBM binding intensity (ln)” value falls from 9.78 to 9.61.

First: GTTTTATTTTCAATGTGTACTTATTATTTGATATAC [XGTACX_site6402]
Second: GATCCATTATTGATCCGTACTTATTCATGTTATATA [XGTACX_site5946]
The “gcPBM binding intensity (ln)” value of the first is higher: 9.59 for the first, 9.57 for the second.

First: TATATATATATATGTATGCACTTTAATTTTATAAGG
Second: TATATATGTATATATACACACAACGGTTATAAATAT [CACACA_site1128]
The “gcPBM binding intensity (ln)” value of the first is lower: 9.08 for the first, 9.59 for the second.

Going from “TGTTATAAGATTTATGTACACACATATACACCCCTC [CACACA_site8141]” to “AAGATTAGGTTAATTAGTACTTATTATATTGTAATG [XGTACX_site3653]”, the “gcPBM binding intensity (ln)” value falls from 9.56 to 9.33.

First: AAGATAAATTATTATAAATCAATTGTGCCAACAATA [CACACA_negctrl_site144]
Second: TTTTTTTTGTGTTCAAGTACAAAATTTTAAAGGTCA [XGTACX_site4011]
The “gcPBM binding intensity (ln)” value of the first is higher: 9.09 for the first, 8.75 for the second.

Going from “TATATATATATATAAGCACACAAACAAAAAAAATTA [CACACA_site9293]” to “GGTTATTTCACAGAATGTACTTATTATATATAAAAT [XGTACX_site8886]”, the “gcPBM binding intensity (ln)” value falls from 9.51 to 9.28.

First: TATAAAAATATTTCTACACACATTAAAATATATATA [CACACA_site4770]
Second: AATGAAAGGATGCTGTGTACATATATATATATATAT [XGTACX_site7901]
The “gcPBM binding intensity (ln)” value of the first is lower: 9.31 for the first, 9.53 for the second.

First: CATTTGCCCAGGCACACACACATAAAAAGAAAAATA [CACACA_site356]
Second: AAGAAAATTGTCTGAAGTACAAAACATTAATAATAT [XGTACX_site4864]
The “gcPBM binding intensity (ln)” value of the first is higher: 9.73 for the first, 9.27 for the second.

First: AATTTAATATAATGCACACATAAAAAAAAAAAATTC [CACACA_site1504]
Second: AGCTTGTGGATGCAGGTGCTACATTTGTTCTATAAT [GTGCAC_site9645]
The “gcPBM binding intensity (ln)” value of the first is higher: 9.48 for the first, 9.29 for the second.

First: CGTATATCACCAACTAGTACATATAAATAAATAAAT [XGTACX_site8837]
Second: GTACCTATTTCATACACACACACACGCAAACAAACA [CACACA_site6590]
The “gcPBM binding intensity (ln)” value of the first is lower: 9.31 for the first, 10.3 for the second.

Going from “ATATAGATTCGACACACACACAAAAAAAAAAAAAAA [CACACA_site7677]” to “TGGTATATTATTTTTTGTACACATAAATGAAACATT [XGTACX_site5345]”, the “gcPBM binding intensity (ln)” value falls from 9.74 to 9.19.

Compared with “ATATATATATATATATGTACATATTATTATTTTGAT [XGTACX_site4752]”, “ATATATATAATAAACACACACATATACATAGATGTA [CACACA_site5841]” is higher in “gcPBM binding intensity (ln)” value: 9.13 for the first, 9.78 for the second.
